For 83 variants, self-cleavage results are on record in the RNAGym collection of RNA variant scans (doi:10.1093/nar/gkz1192).

Read counts are not given, so values of variants with three or more changes are uncertain.

B1: CPEB3 Ribozyme (parent)
chain: UAACAGGGGGCCACAGCAGAAGCGUUCACGUCGCAGCCCCUGUCAGAUUCUGGUGAAUCUGCGAAUUCUGCUGUAUAUCUC

The variants in this data set derive from B1. The data set is described as follows: self-cleavage, relative activity (ratio to wild type); higher = more cleavage; in vitro, sequencing. In outline:
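Barcoded CPEB3 ribozyme mutants, produced by rounds of error-prone PCR, self-cleaved while being transcribed with T7 RNA polymerase for 5 hours at 37°C and during a subsequent 15 min DNase I step before EDTA was added. Sequencing of template-switched cDNA on Illumina gave cleaved and total reads, and DNA sequencing assigned barcodes to variants. Each variant's relative activity is its cleaved/total read fraction divided by the unmutated ribozyme's fraction, averaged across three batches. A variant needed a minimum of 5 reads.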
With A15U C29U G36A A65G, the self-cleavage came out at 0.33.
Turning to A15U U25C A28U A75U, the self-cleavage worked out at 0.07.
Take A15U U25C A28G A57U U72G U78C: the self-cleavage was 0.14.
Under A15U G24A C38A G42A U66C stands 0.07; under A15U C38A A47G A56G A77G U80C, 0.07.
Under A15U A45G U51A U67C A75U stands 0.22; under A15U G36A U69C G70A, 0.23.
As for A15U A21G U49C U74A, the figure is 0.15; as for A15U A20G G42A A45G, 0.27; as for A15U A20G U25C A35C A47G, 0.33.
Consider A15U A20G A47U U60C A77G U80G, for which the self-cleavage was determined as 0.16.
As for A15U A21G A28G G33A A45G, the figure is 0.33; as for A15U C23G C39U U72A, 0.13.
Under A15U A28U C39U U43A A64U stands 0.08; under A15U A20G C38U A77C, 0.06; under A15U G63A U72C, 0.9.
As for A15U A64C A65G U67C, the figure is 0.12.
In the case of A15U U25C A28G C32A C39A U51C, the self-cleavage stood at 0.09.
Take A15U A28G G36A U41A: the self-cleavage stood at 0.16.
Consider A15U A35U U41C A45G U72C, for which the self-cleavage was found to be 0.43.
As for A15U C59A A64C A77U, the figure is 0.08; as for A15U A47G U49C, 0.33; as for A15U A47U A77U, 0.28.
For the variant A15U C44U U76C, the self-cleavage came out at 0.24.
Under A15U G30A U67C stands 0.13; under A15U C17A U41A G42A U76C, 0.37; under A15U A35U G61A, 0.29.
Under A15U A20G U41A U43C stands 0.42.
As for A15U C23U G36A A57G U67C, the figure is 0.09; as for A15U A45U A57G A75G, 0.11.
Turning to A15U A35U G52U A64G, the self-cleavage amounted to 0.53.
As for A15U C23A G30A C50A U51C G63U U80C, the figure is 0.14.
For the variant A15U G24A A45G A47G G52C U67C U80A, the self-cleavage worked out at 0.06.
With A15U G24A U31C U41C U43C A64U, the self-cleavage was 0.06.
Under A15U G24A A47C U58C U80G stands 0.06; under A15U A21G A28C C44U U58C U67C A77U, 0.05; under A15U A21G U41A U54A, 0.26.
As for A15U G30A U51A, the figure is 0.45; as for A15U U25C A45G C62U, 0.04.
Regarding A15U A35C A64U, the self-cleavage was 0.45.
As for A15U A21G A57G, the figure is 0.18; as for A15U A20G U49C A56G U72C U80C, 0.12.
Under A15U U25A A28G U69C stands 0.13; under A15U U25C A47U U58C U60A U76A, 0.07; under A15U A28U U60G, 0.15.
With A15U A28G A65G U72A, the self-cleavage was found to be 0.13.
For A15U G52C G53A U54G A57G U60C, the self-cleavage worked out at 0.22.
Regarding A15U A21G U69C, the self-cleavage was found to be 0.17.
For the variant A15U A28G C32A U43A A47U G73A, the self-cleavage was 0.1.
As to A15U U25C A28C U49C U78C, the self-cleavage came out at 0.06.
Under A15U A20U C40U U43A U58C C62U A77U stands 0.04; under A15U A35G A57G, 1.26; under A15U C27U C29U G33C C38U A65G U76C, 0.03.
For the variant A15U U25C A65G A77G, the self-cleavage is 0.1.
For the variant A15U A20U U25A U31C U49A A57G, the self-cleavage was found to be 0.07.
Under A15U A47U U69C stands 0.14; under A15U A35G U80C, 1.27; under A15U A21U U26A, 0.06.
Turning to A15U C44U U49C, the self-cleavage came out at 0.07.
With A15U A20U U54C U58A U74C U78C, the self-cleavage worked out at 0.09.
With A15U G53U A65G, the self-cleavage is 0.29.
Under A15U A21G U80A stands 0.45; under A15U A47U A64U U72A, 0.14.
As for A15U A45U A57G A64G U69C, the figure is 0.19; as for A15U A21G C32A A56G, 0.17; as for A15U A20U C37A A47U, 0.37.
As for A15U A28U A35U, the figure is 0.57; as for A15U G16U A47G U80C, 0.64; as for A15U C29G U43C A56U U78C, 0.12.
As to A15U U25C G30U, the self-cleavage was determined as 0.09.
Under A15U A20G A45U A64G U74C U80C stands 0.2; under A15U A45U A47G, 0.49; under A15U G19U A57G, 0.13.
Under A15U A20G A28G U41C A45U G55U stands 0.12.
As for A15U G19C A20U A28G U43A C44U U80C, the figure is 0.05; as for A15U A35G U48A U60G, 0.21; as for A15U U25C A64U U72A U78C, 0.08.
Regarding A15U A28G U31C U41A U51A A57U, the self-cleavage was determined as 0.13.
As for A15U A20G A35G U48C G52C A56U U69C, the self-cleavage is 0.18.
As for A15U G16C U54G U58C U72A G73A, the figure is 0.06; as for A15U U25C U26C C59U U66A U69C, 0.15.
Under A15U A45G U74A stands 0.71.
As for A15U A28U U49C, the figure is 0.41.
